# In patent US5721210A, “Cyclic cell adhesion modulation compounds” (priority 1995, dated 1998):
# At least one peptide structure holds a part that was inferred or is arguable (an end, a ring closure or a residue). Bridge positions count the residues as written; N and C are the ends. Peptide text beside a SMILES is read from it. * marks the point of attachment. Acetyl(1-adamantyl) = O=C(CC12CC3CC(CC(C3)C1)C2)*
# Columns and labels:
# [1] = tested on: Jurkat T-cells adhering to IL-1 stimulated human umbilical vein endothelial cell monolayers; assay: Jurkat-endothelial cell adhesion assay (Cell Adhesion Inhibition Assay II); format: cell-based; details: for 200 μM% (percentage inhibition at 200 μM): 200 μM peptide; for IC50: Jurkat-endothelial cell adhesion, peptides tested at 200, 40, 8, 1.6, 0.32, 0.064 μM
# Description: The following assay established the activity of the present compound in inhibiting cell-cell adhesion in a representative in vitro system. This assay measures the adhesive interactions of T-cells to endothelial cell monolayers in the presence of a test compound. The test compound is added in increasing concentrations with T-cells and this is added to endothelial cell monolayers. The plates are incubated, washed and the percentage of attached cells is quantitated.
# Human umbilical vein endothelial cells were purchased from Clonetics (San Diego, Calif.) at passage number 2. The cells were grown on 0.5% porcine skin gelatin pre-coated flasks (Sigma, St. Louis, Mo.) in EGM-UV media (Clonetics, San Diego, Calif.) supplemented with 10% fetal bovine serum. Cells were refed every 2-3 days reaching confluence by day 4 to 6. […] The endothelial cells were not used following passage 14-15.
# The T-cell line Jurkat was obtained from American Type Tissue Culture Collection (Rockville, Md.). The cells were cultured in RPMI media containing 10% fetal calf serum. The cells were washed twice with Hank's Balanced Salt Solution (HBSS) and resuspended in Dulbecco's […] Eagle's Media (DMEM) containing 2.5 mg/ml Human Serum Albumin (HSA). The Jurkat cells (1×10^6 cells/ml) were stained with 10 μg/ml fluorescein diacetate (Sigma, St. Louis, Mo.) in HSSS containing 5% fetal calf serum. The cells were stained for 15 minutes in the dark at room temperature, washed 2 times, and resuspended in a DMEM-HSA solution.
# Confluent endothelial monolayers grown in 96-well tissue culture plates were stimulated for 4 hours at 37° C. with 0.1 ng/ml (^~ 50 U/ml) recombinant IL-1 (Amgen, Thousand Oaks, Calif.). Following this incubation, the monolayers were washed twice with HBSS and 0.1 ml of DMEM-HSA solution was added. Jurkat cells (5×10^5 cells) were combined with appropriate concentrations of a peptide to be tested and 0.1 ml of the Jurkat-peptide mixture were added to the endothelial cell monolayers. Generally, 200 and 10 μM peptide concentrations were tested. […] The plates were placed on ice for 5 minutes to allow for Jurkat cell settling and then incubated at 37° C. for 20 minutes. Following this incubation, the monolayers were washed twice with PBS containing 1 mM calcium chloride and 1 mM magnesium chloride and the plates were read using a Pandex Fluorescence Concentration Analyzer (Baxter, Mundelein, Ill.). Fluorescence in each well was measured as arbitrary fluorescence units and percent adhesion in the absence of a peptide was adjusted to 100% and the percentage adhesion in the presence of the peptide was calculated. Monolayers were also fixed in 3% paraformaldehyde and evaluated microscopically to verify adhesion.
# [2] = tested on: U937 cells (fibronectin receptor) adhering to fibronectin-coated wells; details: read-out: IC50 μM; U937 cells on fibronectin-coated wells, 60 min at 37° C.; concentration at which adhesion is inhibited to 50% of control
# [3] = Jurkat cells on IL-1 stimulated endothelial monolayers, 20 min at 37° C.
Structure (SMILES),"10 μM% (percentage inhibition at 10 μM) ([1]; 10 μM peptide, Jurkat cells on IL-1 stimulated endothelial monolayers, 20 min at 37° C.) [%]","200 μM% (percentage inhibition at 200 μM) [1, 3] [%]",IC50 [1] [µM],IC50 [2] [µM]
"N=C(N)NCCC[C@@H]1NC(=O)[C@H](Cc2ccc(O)cc2)NC(=O)[C@@H](N)CSSC[C@@H](C(=O)O)NC(=O)[C@@H]2CCCN2C(=O)[C@H](CO)NC(=O)[C@H](CC(=O)O)NC(=O)CNC1=O [Peptide 14, C*YRGDSPC*] (H-CYRGDSPC-OH; disulfide 1-8)",31,21,4,198
"N=C(N)NCCC[C@@H]1NC(=O)CNC(=O)[C@@H](NC(=O)CC23CC4CC(CC(C4)C2)C3)CSSC[C@@H](C(=O)O)NC(=O)[C@@H]2CCCN2C(=O)[C@H](CO)NC(=O)[C@H](CC(=O)O)NC(=O)CNC1=O [Peptide 23, (Ada)-C*GRGDSPC*] ({Acetyl(1-adamantyl)}-CGRGDSPC-OH; disulfide 1-8)",–,9,4,272
